One series has as its system Helminthosporium oryzae. Nature of the series: rice Helminthosporium seed treatment test. The following applies: 1.3 g per kilogram of seed, 18 days. In kind it is in vivo.
The subject of the next series is tomato seedlings. Set-up: key: B = burn. The conditions noted are these: 20 ppm. Here is the method: (§1) Compounds of this invention are dissolved in acetone in an amount equal to 6% of the final volume and then suspended at a concentration of 20 ppm in purified water containing 25 ppm of the surfactant Alkanol® XC (sodium alkyl naphthalene sulfonate). This suspension is sprayed to the point of run-off on tomato seedlings. The following day, the plants are inoculated with a spore suspension of the fungus Phytophthora infestans and incubated in a growth room for 4 days. Disease ratings are then made. As shown in the following table, several of the compounds of this invention provided excellent disease control, as treated plants had no late blight lesions in contrast to untreated plants which were covered with lesions. Phytotoxicity in the form of foliar burn was observed on some of the plants in association with disease control.
as §1, with “day, 1/2 inch of simulated rainfall is applied to the foliage of the plants. When the foliage is dry,” for “day,”, “most” for “several”, “had little or” for “had”
as §1, with “seedlings. When the foliage is dry, the plants are exposed to 3500 foot candles of light from a xenon arc source for a period of 16 hours. This light source approximates the spectrum of natural sunlight, and is used to assess photostability of the compounds of this invention on plant foliage.” for “seedlings.”, “most” for “several”, “had little or” for “had”

Where two headings read alike, the source gives them in different places.

As to `O=C1CCCN1SN(c1cc(C(F)(F)F)ccc1Cl)c1c([N+](=O)[O-])cc([N+](=O)[O-])cc1C(F)(F)F`, the “% Control of rice Helminthosporium in a seed treatment test” value (from here on “% Control of rice Helminthosporium”) in the series with Helminthosporium oryzae is reported as 80%. For the same compound, the Phytotoxicity entry in the series with tomato seedlings (photostability test), in the series with tomato seedlings (preventive test) and in the series on tomato seedlings (residual wash-off test) was “B” each time.
For `COC(=O)CN(SN(c1cc(C(F)(F)F)ccc1Cl)c1c([N+](=O)[O-])cc([N+](=O)[O-])cc1C(F)(F)F)S(=O)(=O)c1ccc(C)cc1`, the “% Control of rice Helminthosporium” value in the series on Helminthosporium oryzae was 60%.
As for `Cc1ccc(S(=O)(=O)N(SN(c2cc(C(F)(F)F)ccc2Cl)c2c([N+](=O)[O-])cc([N+](=O)[O-])cc2C(F)(F)F)C(C)C)cc1`, the “% Control of rice Helminthosporium” value in the series on Helminthosporium oryzae stood at 70%. Besides, the Phytotoxicity result with tomato seedlings (preventive test) and with tomato seedlings (residual wash-off test) was “B” each time.
With `CCCCN(SN(c1cc(C(F)(F)F)ccc1Cl)c1c([N+](=O)[O-])cc([N+](=O)[O-])cc1C(F)(F)F)S(=O)(=O)N(C)C`, in the series with Helminthosporium oryzae, the “% Control of rice Helminthosporium” value was 80%. For the same compound, the Phytotoxicity entry with tomato seedlings (photostability test), in the series on tomato seedlings (preventive test) and in the series with tomato seedlings (residual wash-off test) was “B” throughout.
For the compound `Cc1ccc(S(=O)(=O)N(C)SN(c2cc(C(F)(F)F)ccc2Cl)c2c([N+](=O)[O-])cc([N+](=O)[O-])cc2C(F)(F)F)cc1`, the “% Control of rice Helminthosporium” value with Helminthosporium oryzae came out at 70%. The Phytotoxicity result in the series with tomato seedlings (photostability test), with tomato seedlings (preventive test) and with tomato seedlings (residual wash-off test) was “B” in each case.
`CN(SN(c1cc(C(F)(F)F)ccc1Cl)c1c([N+](=O)[O-])cc([N+](=O)[O-])cc1C(F)(F)F)S(=O)(=O)c1ccc2ccccc2c1`: the “% Control of rice Helminthosporium” value with Helminthosporium oryzae is reported as 100%. In addition, the Phytotoxicity result with tomato seedlings (photostability test), with tomato seedlings (preventive test) and in the series on tomato seedlings (residual wash-off test) was “B” throughout.
Regarding `Cc1ccc(S(=O)(=O)N(C)SN(c2c(F)cc(F)cc2F)c2c([N+](=O)[O-])cc([N+](=O)[O-])cc2C(F)(F)F)cc1`, the “% Control of rice Helminthosporium” value in the series on Helminthosporium oryzae is listed as 90%.
For the compound `CCCCN(SN(c1cc(C(F)(F)F)ccc1Cl)c1c([N+](=O)[O-])cc([N+](=O)[O-])cc1C(F)(F)F)S(=O)(=O)c1ccccc1C`, the “% Control of rice Helminthosporium” value in the series with Helminthosporium oryzae was determined as 70%. For the same compound, the Phytotoxicity result in the series on tomato seedlings (photostability test), in the series with tomato seedlings (preventive test) and in the series on tomato seedlings (residual wash-off test) was “B” in each case.
Consider `CCCCN(SN(c1cc(C(F)(F)F)ccc1Cl)c1c([N+](=O)[O-])cc([N+](=O)[O-])cc1C(F)(F)F)S(=O)(=O)c1ccccc1`, for which the “% Control of rice Helminthosporium” value in the series with Helminthosporium oryzae is 20%. Further, the Phytotoxicity entry in the series on tomato seedlings (photostability test), in the series on tomato seedlings (preventive test) and in the series with tomato seedlings (residual wash-off test) was “B” each time.
For the compound `CCCCN(SN(c1cc(C(F)(F)F)ccc1Cl)c1c([N+](=O)[O-])cc([N+](=O)[O-])cc1C(F)(F)F)S(=O)(=O)c1ccc(C)cc1`, the “% Control of rice Helminthosporium” value in the series on Helminthosporium oryzae is given as 40%. The Phytotoxicity entry in the series on tomato seedlings (photostability test), in the series on tomato seedlings (preventive test) and in the series with tomato seedlings (residual wash-off test) was “B” in each case.

The record behind these values is US4309425A (priority 1980, dated 1982).
